# Assay results from PubChem BioAssay AID588855 (National Center for Advancing Translational Sciences (NCATS), 2011).
# Hit rate of the full screen: of about 410,000 compounds, about 5,000 (1.2%) were called active. Inconclusive means that the source gave no clear call. Such entries were picked first, then a sample of the others. Calls come from the whole dose curve; as a rule, active = well fitted inhibition curve with a large enough effect; inconclusive = small, poorly fitted or top-dose-only effect; inactive = no such curve, though single readings can be large or run the other way. Potencies of inconclusive entries are doubtful fits and often do not repeat. Numbered stars: 1 amine (or outer) side, 2 acyl side, 3 side chain; on linkers, the order of the positions; unused ones are H or OH. Square brackets hold non-standard residues; d marks the D form. Peptide text beside a SMILES is read from it. ξ: configuration not given here. X5 = CCCCCCC[C@H](O)C[C@@H](N[*:1])[C@@H](O)C(=O)[*:2]; X7 = COc1ccc(CCCC(N[*:1])C(=O)[*:2])cc1; ξThr(3R) = C[C@@H](O)C(N)C(=O)O; NMeN = CN[C@@H](CC(N)=O)C(=O)O; X6 = C/C=C(/N[*:1])C(=O)[*:2]; Dhb = C/C=C(\N)C(=O)O; Sar = CNCC(=O)O
# Test: qHTS for Inhibitors of TGF-b; note: nearly all actives have a fitted effect of over 65% in size
# Details: HepG2 CAGA-GFP TGF-b/SMAD3 reporter, GFP fluorescence, 18 h, TGF-beta stimulated, 500 pg/mL final; series mostly up to 46.1 µM
# In short: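 Using HEPG2 CAGA-GFP reporter cells at 1000 cells/well, we pinned test compounds, stimulated with recombinant TGF-beta (500 pg/mL final) and measured total well GFP after 18 h.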
# Potency is the fitted concentration of half-maximal effect; tags give direction and shape of the fitted curve.
row,SMILES,Potency
1,CCC1CCCCN1CCCNC(=O)CCC(=O)N1CCOc2ccccc21 (centres undefined),inactive
2,Cc1ccc(S(=O)(=O)N2CCN(C(=O)COC(=O)Cc3cccc(C(F)(F)F)c3)CC2)c(C)c1,"inconclusive: 8.91 µM [inhibitor, partial curve]"
3,Cc1cccc(C)c1OCC(O)Cn1c2ccccc2c2ccccc21 (centres undefined),"inconclusive: 35.5 µM [inhibitor, single point]"
4,CC(C)[C@H](NC(=O)C1CCC(CNC(=O)[C@@H]2CCCN2C(=O)OC(C)(C)C)CC1)C(=O)O (some centres undefined),inactive
5,CN1CCc2ccc(NC(=O)c3ccc(C(F)(F)F)cc3)cc2C1,"inconclusive: 35.5 µM [inhibitor, single point]"
6,NNc1ncnc2c1cnn2-c1ccccc1,"inconclusive: 35.5 µM [inhibitor, single point]"
7,Cc1ccccc1C(=O)n1nc(-c2cccnc2)nc1NCc1ccccc1,"inconclusive: 7.94 µM [inhibitor, partial curve, poor fit]"
8,COc1ccc(OC)c(CCNC(=O)Cn2ncc3c([nH]c4ccccc43)c2=O)c1,inactive
9,Cc1ccc(NC(=O)CN(C)C(=O)COc2cccc3cccnc23)cc1,"inconclusive: 25.1 µM [inhibitor, single point]"
10,CCC(C(=O)N1CCOCC1)n1nc(C)c2c(C)n(-c3ccccc3)nc2c1=O (centres undefined),inactive
11,C/C=C1\NC(=O)[C@H](CC(N)=O)N(C)C(=O)C([C@@H](C)O)NC(=O)C(CCCc2ccc(OC)cc2)NC(=O)[C@H](C(C)C)NC(=O)/C(=C\C)NC(=O)[C@H](O)[C@@H](C[C@@H](O)CCCCCCC)NC(=O)[C@H](C)NC(=O)CN(C)C(=O)[C@H](CCC(N)=O)NC1=O (stereo partly drawn) (cyclo(A[X5][X6]V[X7][ξThr(3R)][NMeN][Dhb]Q[Sar])),"inconclusive: 0.631 µM [inhibitor, full curve, poor fit]"
12,O=C(NC1=NCCS1)c1cc(-c2cccs2)nc2ccccc12,inactive
13,O=C(CCn1c2c(c3ccccc31)CCCC2)NNC(=O)c1ccc(Cl)c([N+](=O)[O-])c1,"inconclusive: 35.5 µM [inhibitor, single point]"
14,O=C(NC(Cc1c[nH]c2ccccc12)C(=O)N/N=C/c1cccc2ccccc12)c1cccs1 (centres undefined),"inconclusive: 8.91 µM [inhibitor, partial curve, poor fit]"
15,CC(=O)Nc1cccc(C(=O)OCC(=O)NCc2ccc(F)cc2)c1,"inconclusive: 35.5 µM [inhibitor, single point]"
16,N#Cc1c(-c2ccc(Cl)cc2)ccnc1N1CCOCC1,inactive
17,Cc1ccc(F)c(S(=O)(=O)NC(=O)C2(C)CCN2C(=O)c2ccc(C3CCCCC3)cc2)c1 (centres undefined),inactive
18,O=C(NN=C1CCCC1)c1[nH]c2ccc(Cl)cc2c1-c1ccccc1,"inconclusive: 35.5 µM [inhibitor, single point]"
19,COc1ccccc1CCNC(=O)C(=O)NCC(c1ccco1)S(=O)(=O)c1ccc(C)cc1 (centres undefined),"inconclusive: 35.5 µM [inhibitor, single point]"
20,COc1ccc(CC(N)c2csc(NC(=O)c3cc(C(C)(C)C)nn3Cc3ccccc3)n2)cc1 (centres undefined),"inconclusive: 35.5 µM [inhibitor, single point]"
21,Cc1nn(CCOc2cccc(Cl)c2)c(C)c1[N+](=O)[O-],inactive
22,O=C(CCCCCn1c(=S)[nH]c2ccc(N3CCOCC3)cc2c1=O)NCCc1ccccc1,"inconclusive: 5.01 µM [inhibitor, single point]"

row,SMILES,Potency
1,Cc1cc(C)c(S(=O)(=O)NCC(c2cccs2)S(=O)(=O)c2ccccc2)c(C)c1 (centres undefined),active: 5.62 µM
2,O=C(O)CSc1ccc(Oc2ccc(SCC(=O)O)cc2)cc1,"inconclusive: 0.0891 µM [inhibitor, full curve, poor fit]"
3,O=C(CNC(=O)c1ccccc1)N/N=C/c1ccc([N+](=O)[O-])o1,"inconclusive: 20 µM [inhibitor, single point]"
4,Cc1ccc(S(=O)(=O)N(C)C)cc1NC(=O)CCCNC(=O)c1ccc(Cl)cc1,inactive
5,CS(=O)(=O)c1ccc(C(=O)N(Cc2ccccc2)c2ccccc2)cc1,inactive
6,Cc1noc(C)c1S(=O)(=O)Nc1ccc2c(c1)C(=O)N([C@H](C)CO)C[C@H](C)[C@H](CN(C)S(=O)(=O)c1ccc(Cl)cc1)OCCCC[C@@H](C)O2,"inconclusive: 17.8 µM [inhibitor, single point]"
7,C[C@H](O)[C@@H]1C(=O)N2CCc3ccc(-c4ccccc4)cc3[C@@H]2C[C@@H]1N(C)C(=O)Nc1cc(Cl)cc(Cl)c1,"inconclusive: 8.91 µM [inhibitor, partial curve, poor fit]"
8,CCCc1noc2c1/C(=N\O)CC(c1ccccc1)C2 (centres undefined),inactive
9,COc1cc2c(cc1OC)CN(C(=O)c1cc(S(=O)(=O)N3CCOCC3)c(Cl)cc1Cl)CC2,"inconclusive: 0.112 µM [inhibitor, full curve, poor fit]"
10,ClC(Cl)(Cl)c1nc2ccccc2n2nncc12,active: 15.8 µM
11,CCOC(=O)c1sc2nc(-c3ccco3)c3c(c2c1N)CC(C)(C)OC3,"inconclusive: 20 µM [inhibitor, single point]"
12,CN(C)C(CNC(C(=O)Nc1ccc(F)cc1)c1ccccc1)c1ccccc1 (centres undefined),inactive
13,CS(=O)(=O)N1CCN(c2ccc(NC(=O)c3ccccc3)cc2)CC1,"inconclusive: 5.62 µM [inhibitor, single point]"
14,COc1ccc(OCCCC(=O)Nc2cc(S(=O)(=O)N3CCCCC3)ccc2C)cc1,inactive
15,Cc1ccc(CNC(=O)CCS(=O)(=O)c2cc(Br)cc3c2N(C(=O)C2CC2)CC3)cc1,"inconclusive: 0.631 µM [inhibitor, partial curve, poor fit]"
16,Cn1nnnc1Sc1ncnc2scc(-c3cccc4ccccc34)c12,"inconclusive: 15.8 µM [inhibitor, partial curve, poor fit]"
17,Cc1sc2ncnc(NCC3(N4CCOCC4)CCCCC3)c2c1C,"inconclusive: 0.355 µM [inhibitor, partial curve, poor fit]"
18,CN(C(=O)/C(N=Nc1cccc(C(F)(F)F)c1)=C(\O)C(F)(F)F)c1ccccc1,"inconclusive: 35.5 µM [inhibitor, single point]"
19,CCCC[C@@H]1CNCCN1CC1(c2ccccc2)CC1,inactive
20,COc1ccc(CC(=O)NCCc2csc(-c3ccc(Cl)cc3)n2)cc1,"inconclusive: 7.08 µM [inhibitor, partial curve, poor fit]"
21,CCOc1cc(CNn2cnnc2SCC(=O)NC(C)(C)C)ccc1OCC(=O)NC(C)(C)C,inactive
22,CCOC(=O)c1ccc(NC(=O)c2nc[nH]c2C(=O)N2CCC(C)CC2)cc1,"inconclusive: 0.178 µM [inhibitor, full curve, poor fit]"

row,SMILES,Potency
1,CN(C)c1cccc(C(=O)NNC(=O)NC2CCCCC2)c1,inactive
2,O=C(Nc1ccnn1C1CCN(Cc2ccccc2)CC1)C1CCCC1,"inconclusive: 6.31 µM [inhibitor, single point]"
3,CCCc1nc2oc3c(NCCN(C)C)ncnc3c2c2c1CCCC2,"inconclusive: 35.5 µM [inhibitor, single point]"
4,CN(C(=O)CSc1nc2ccccc2o1)C1CCCCC1,inactive
5,CC(C)(C)C1CCC(NC(=O)c2cnn3c2NC(=C2CC2)C=C3C(F)F)CC1 (centres undefined),"inconclusive: 3.16 µM [inhibitor, single point]"
6,CCN(C[C@H]1N[C@@](CC)(C(=O)OC)[C@H]2C(=O)N(Cc3ccccc3)C(=O)[C@@H]12)C(=O)Nc1ccc(OC)cc1,inactive
7,CCOC(=O)C1CCCN(CC(O)COCc2ccc3c(c2)OCO3)C1 (centres undefined),"inconclusive: 35.5 µM [inhibitor, single point]"
8,COc1cccc(CC(=O)Nc2ccccc2C(=O)N2CCOCC2)c1,"inconclusive: 2.82 µM [inhibitor, single point]"
9,Cc1nc(-c2ccccc2)sc1CCNS(=O)(=O)c1ccc(Br)cc1,active: 11.2 µM
10,Cc1ccc(C)c(C(=O)OCC(=O)Nc2cccc(S(=O)(=O)NC3=NCCCCC3)c2)c1,"inconclusive: 12.6 µM [inhibitor, partial curve, poor fit]"
11,CCOc1ccc(-n2cc(C(=O)Nc3ccc(Cl)cn3)c3cc(OC)c(OC)cc3c2=O)cc1,inactive
12,Cc1ccc(/C=C/C(=O)c2cc(Br)ccc2OC(=O)c2ccco2)cc1,inactive
13,O=C(c1ccc(OCCN2CCCCC2)cc1)c1c(-c2ccc(O)cc2)sc2cc(O)ccc12,"inconclusive: 35.5 µM [inhibitor, single point]"
14,OCCCNc1nc(-c2ccccc2)c2cc(Br)ccc2n1,inactive
15,CCOc1ccc2ccccc2c1CNCCc1ccc(S(N)(=O)=O)cc1,"inconclusive: 35.5 µM [inhibitor, single point]"
16,CSc1nsc2nc(=O)c(/C=C3\C(C)=Nc4ccc(C)cc43)c(N)n12,"inconclusive: 11.2 µM [inhibitor, partial curve, poor fit]"
17,O=C(/C=C/c1ccc(-c2ccccc2[N+](=O)[O-])o1)c1ccco1,"inconclusive: 35.5 µM [inhibitor, partial curve, poor fit]"
18,COc1cc(NC(=O)CN2C(=O)C(C)N(c3ccc(C)cc3)C2=O)cc(OC)c1 (centres undefined),inactive
19,CCNC(=O)Cc1ccc(NC(=O)N2CCCCc3ccccc32)cc1,"inconclusive: 1.12 µM [inhibitor, full curve]"
20,CCCn1c2ccccc2c2cnn(CC(=O)NCCc3ccc(OC)cc3OC)c(=O)c21,"inconclusive: 0.631 µM [inhibitor, full curve, poor fit]"
